Experimental findings from the supplement of paper PMC9588766 are described below.

Molecules are shown by their SMILES. Counter-ions that a name gives are not always drawn. Whole data set: some 1,900 compounds, median “cell viability of compound + 1 nM pemigatinib relative to pemigatinib-only (DMSO) wells” near 0.95, cut for the lowest 2% near 0.22. Some of the results follow.

For this test, the system named is PDC-DUC18828. The test is described as follows: cell viability of compound + 1 nM pemigatinib relative to pemigatinib-only (DMSO) wells (fraction); PDC-DUC18828 is a patient-derived cholangiocarcinoma cell line; higher = less growth inhibition. To be noted: first compound 1 µM; pemigatinib concentration 1 nM; 72 h. Here is the method: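 Selleck Bioactive library screen in the patient-derived FGFR2 fusion-positive ICC cell line PDC-DUC18828 (500 cells/well). Each compound was tested at 1 uM with 1 nM pemigatinib, in triplicate, for 72 h. Viability was read by CellTiter-Glo and normalised to plate DMSO controls. Value is the paper's averaged normalised viability.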
With `Cc1ccnc2c1NC(=O)c1cccnc1N2C1CC1` [Nevirapine] + CCN1C(=O)N(c2c(F)c(OC)cc(OC)c2F)Cc2cnc3[nH]c(CN4CCOCC4)cc3c21 [pemigatinib], the cell viability was determined as 0.973.

Regarding `CC(=O)c1cc([N+](=O)[O-])c(Sc2cccc(Cl)c2Cl)s1` + CCN1C(=O)N(c2c(F)c(OC)cc(OC)c2F)Cc2cnc3[nH]c(CN4CCOCC4)cc3c21 [pemigatinib], the cell viability turned out to be 0.967.

With `CS(=O)(=O)c1ccc(C2=C(c3ccccc3)C(=O)OC2)cc1` [Rofecoxib] + CCN1C(=O)N(c2c(F)c(OC)cc(OC)c2F)Cc2cnc3[nH]c(CN4CCOCC4)cc3c21 [pemigatinib], the cell viability turned out to be 0.852.

In the case of `Cn1c(=O)c2[nH]cnc2n(C)c1=O` [Aminophylline] + CCN1C(=O)N(c2c(F)c(OC)cc(OC)c2F)Cc2cnc3[nH]c(CN4CCOCC4)cc3c21 [pemigatinib], the cell viability is 1.

Consider `Cc1c(C(N)=O)cc([N+](=O)[O-])cc1[N+](=O)[O-]` [Dinitolmide] + CCN1C(=O)N(c2c(F)c(OC)cc(OC)c2F)Cc2cnc3[nH]c(CN4CCOCC4)cc3c21 [pemigatinib], for which the cell viability was 1.1.

Take `N=C(N)N` [Guanidine HCl] + CCN1C(=O)N(c2c(F)c(OC)cc(OC)c2F)Cc2cnc3[nH]c(CN4CCOCC4)cc3c21 [pemigatinib]: the cell viability was 0.963.

Regarding `Cc1ncc([N+](=O)[O-])n1CC(O)CCl` (stereo unspecified) [Ornidazole] + CCN1C(=O)N(c2c(F)c(OC)cc(OC)c2F)Cc2cnc3[nH]c(CN4CCOCC4)cc3c21 [pemigatinib], the cell viability is 0.897.

As to `CN1C(C(=O)Nc2ccccn2)=C(O)c2sccc2S1(=O)=O` [Tenoxicam] + CCN1C(=O)N(c2c(F)c(OC)cc(OC)c2F)Cc2cnc3[nH]c(CN4CCOCC4)cc3c21 [pemigatinib], the cell viability is 0.919.

For `CCc1nc(-c2cccc(C)c2)c(-c2ccnc(NC(=O)c3ccccc3)c2)s1` + CCN1C(=O)N(c2c(F)c(OC)cc(OC)c2F)Cc2cnc3[nH]c(CN4CCOCC4)cc3c21 [pemigatinib], the cell viability came out at 0.815.

For `Cc1cccc(C)c1NC(=O)C1CCCCN1C` (stereo unspecified) [Mepivacaine HCl] + CCN1C(=O)N(c2c(F)c(OC)cc(OC)c2F)Cc2cnc3[nH]c(CN4CCOCC4)cc3c21 [pemigatinib], the cell viability turned out to be 0.892.

For `COc1cc(/C=C/C(=O)N2CCC=CC2=O)cc(OC)c1OC` [Piperlongumine] + CCN1C(=O)N(c2c(F)c(OC)cc(OC)c2F)Cc2cnc3[nH]c(CN4CCOCC4)cc3c21 [pemigatinib], the cell viability stood at 0.789.

Regarding `CC1(COc2ccc3c(c2)ncn3-c2ccc3cccc(N4CCC(N)CC4)c3n2)COC1` + CCN1C(=O)N(c2c(F)c(OC)cc(OC)c2F)Cc2cnc3[nH]c(CN4CCOCC4)cc3c21 [pemigatinib], the cell viability was 1.03.

As for `COc1ccccc1-c1cc(Nc2cccc(CS(N)(=O)=O)c2)ncn1` + CCN1C(=O)N(c2c(F)c(OC)cc(OC)c2F)Cc2cnc3[nH]c(CN4CCOCC4)cc3c21 [pemigatinib], the cell viability is 0.963.

Consider `C[C@@H](Oc1cc(-n2cnc3ccc(CN4CCN(C)CC4)cc32)sc1C(N)=O)c1ccccc1C(F)(F)F` + CCN1C(=O)N(c2c(F)c(OC)cc(OC)c2F)Cc2cnc3[nH]c(CN4CCOCC4)cc3c21 [pemigatinib], for which the cell viability worked out at 0.271.

Regarding `CNCC[C@H](Oc1cccc2ccccc12)c1cccs1` [Duloxetine HCl] + CCN1C(=O)N(c2c(F)c(OC)cc(OC)c2F)Cc2cnc3[nH]c(CN4CCOCC4)cc3c21 [pemigatinib], the cell viability is 1.06.

Turning to `COc1cc2c(cc1OC)CN(CCc1ccc(NC(=O)c3cc(OC)c(OC)cc3NC(=O)c3cnc4ccccc4c3)cc1)CC2` [Tariquidar] + CCN1C(=O)N(c2c(F)c(OC)cc(OC)c2F)Cc2cnc3[nH]c(CN4CCOCC4)cc3c21 [pemigatinib], the cell viability was 1.02.

For the compound `COc1cc(Cc2cnc(N)nc2N)cc(OC)c1OC` [Trimethoprim] + CCN1C(=O)N(c2c(F)c(OC)cc(OC)c2F)Cc2cnc3[nH]c(CN4CCOCC4)cc3c21 [pemigatinib], the cell viability is 0.906.

Consider `COc1ccc([C@H]2CNC(=O)C2)cc1OC1CCCC1` [S- (+)-Rolipram] + CCN1C(=O)N(c2c(F)c(OC)cc(OC)c2F)Cc2cnc3[nH]c(CN4CCOCC4)cc3c21 [pemigatinib], for which the cell viability came to 0.996.

For `Cc1nc(-c2cn3c(n2)-c2ccc(-c4cnn(C(C)(C)C(N)=O)c4)cc2OCC3)n(C(C)C)n1` + CCN1C(=O)N(c2c(F)c(OC)cc(OC)c2F)Cc2cnc3[nH]c(CN4CCOCC4)cc3c21 [pemigatinib], the cell viability came out at 0.578.

For the compound `CC(C)(C)c1ccc(-c2nc3ccccc3[nH]2)cc1` + CCN1C(=O)N(c2c(F)c(OC)cc(OC)c2F)Cc2cnc3[nH]c(CN4CCOCC4)cc3c21 [pemigatinib], the cell viability was 0.888.

For `O=c1cc[nH]c(=S)[nH]1` [2-Thiouracil] + CCN1C(=O)N(c2c(F)c(OC)cc(OC)c2F)Cc2cnc3[nH]c(CN4CCOCC4)cc3c21 [pemigatinib], the cell viability turned out to be 0.916.

`Cc1cc(C)c(/C=C2\C(=O)Nc3ccccc32)[nH]1` [Semaxanib (SU5416)] + CCN1C(=O)N(c2c(F)c(OC)cc(OC)c2F)Cc2cnc3[nH]c(CN4CCOCC4)cc3c21 [pemigatinib]: the cell viability was 0.923.

Take `O=C(NOC[C@H](O)CO)c1ccc(F)c(F)c1Nc1ccc(I)cc1F` + CCN1C(=O)N(c2c(F)c(OC)cc(OC)c2F)Cc2cnc3[nH]c(CN4CCOCC4)cc3c21 [pemigatinib]: the cell viability came out at 0.649.

Consider `CC(C)c1cc(-c2ccc(F)c3ccccc23)nc(N)n1` + CCN1C(=O)N(c2c(F)c(OC)cc(OC)c2F)Cc2cnc3[nH]c(CN4CCOCC4)cc3c21 [pemigatinib], for which the cell viability is 0.951.

As to `O=C1CC2(CCCC2)CC(=O)N1CCCCN1CCN(c2ncccn2)CC1` [Buspirone HCl] + CCN1C(=O)N(c2c(F)c(OC)cc(OC)c2F)Cc2cnc3[nH]c(CN4CCOCC4)cc3c21 [pemigatinib], the cell viability was determined as 1.01.

For the compound `CC[C@H]1OC(=O)[C@H](C)[C@@H](O[C@H]2C[C@@](C)(OC)[C@@H](O)[C@H](C)O2)[C@H](C)[C@@H](O[C@@H]2O[C@H](C)C[C@H](N(C)C)[C@H]2O)[C@](C)(O)C[C@@H](C)[C@@H]2N[C@@H](COCCOC)O[C@H]([C@H]2C)[C@]1(C)O` [Dirithromycin] + CCN1C(=O)N(c2c(F)c(OC)cc(OC)c2F)Cc2cnc3[nH]c(CN4CCOCC4)cc3c21 [pemigatinib], the cell viability is 0.967.
